Inconclusive results, whose numbers are uncertain, are shown with a selection of clear calls. Potencies beside an inconclusive call are fits to weak or partial responses and may not hold up. Calls of active or inactive are those of the source. Calls come from the whole dose curve; as a rule, active = well fitted activation curve with a large enough effect; inconclusive = small, poorly fitted or top-dose-only effect; inactive = no such curve, though single readings can be large or run the other way.
The compounds below were run against Cellular tumor antigen p53 (Homo sapiens) (UniProt P04637) (assay: Primary qHTS for small molecule compounds that upregulate eGFP-tagged delta133p53alpha (in N-terminal) cells. (AID 2060322;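 note: cells pre-induced with doxycycline then dosed without doxycycline; nearly all actives have a fitted effect of over 75% in size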)). Conditions: NCI-H358 eGFP-delta133p53alpha fluorescence, 24 h; activation: hits give high values.
Chain of UniProt P04637 (P04637 whole entry, looked up): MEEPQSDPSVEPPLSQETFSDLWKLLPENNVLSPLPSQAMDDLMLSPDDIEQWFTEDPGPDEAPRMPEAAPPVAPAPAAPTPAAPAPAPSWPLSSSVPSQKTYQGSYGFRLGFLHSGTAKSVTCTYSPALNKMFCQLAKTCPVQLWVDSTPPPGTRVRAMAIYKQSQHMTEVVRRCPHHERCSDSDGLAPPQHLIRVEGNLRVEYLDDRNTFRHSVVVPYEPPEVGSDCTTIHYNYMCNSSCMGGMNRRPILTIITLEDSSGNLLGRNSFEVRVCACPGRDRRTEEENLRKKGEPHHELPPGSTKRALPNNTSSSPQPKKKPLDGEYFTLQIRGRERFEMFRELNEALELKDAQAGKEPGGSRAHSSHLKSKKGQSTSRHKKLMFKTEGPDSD
How it was run: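 NCI-H358 cells pre-induced 24 h with 10 ng/ml doxycycline for eGFP-delta133p53alpha, plated dox-free and exposed 24 h at 37C to titrated compounds. Fixed, Hoechst-stained; gated GFP peak intensity by laser scanning cytometry, normalized to DMSO (0%) and 57.5 uM 5-azacytidine (100%).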
In the case of `CC(C)n1cnc2c(Nc3cccc(Cl)c3)nc(NCCO)nc21`, the Potency is reported as inconclusive: 33.8 µM [activator, single point].
`C=C1C(=O)OC2C1CCC1(C)C(O)CCC(=C)C21` (configuration not stated) was tested, and the Potency was inconclusive: 10.7 µM [activator, partial curve, poor fit].
For `CC1OC(OC2C(O)COC(O[C@@H]3[C@@H](O)[C@@H](O)[C@H](OC4C(OC(=O)[C@]56CCC(C)(C)CC5C5=CCC7[C@@]8(C)C[C@H](O)[C@H](OC9OC(CO)C(O)C(O)C9O)[C@@](C)(CO)C8[C@H](O)C[C@@]7(C)[C@]5(C)CC6)OCC(O)C4O)O[C@H]3C)C2O)C(O)C(O)C1O` (some centres not stated), the Potency was inconclusive: 0.226 µM [activator, full curve, poor fit].
With `CC(=O)O[C@@H]1C[C@@]23C[C@@]24CC[C@H](O[C@@H]2OC[C@H](O)[C@H](O)[C@H]2O)C(C)(C)[C@@H]4CC[C@H]3[C@]2(C)[C@@H](O)C34O[C@H](C[C@@H](C)[C@@H]3[C@@]12C)[C@@H](C(C)(C)O)O4` the Potency was active: 3.79 µM.
With `C=C1C(=O)O[C@H]2C1[C@H](OC(=O)/C(=C/CO)COC(=O)/C(C)=C/CO)CC(=C)[C@@H]1CC(=O)[C@@H](C)[C@@H]12` (some centres not stated) the Potency was inconclusive: 16.5 µM [activator, single point].
For `NC(=O)c1cccc(-c2cc(O)cc(OC(=O)NC3CCCCC3)c2)c1`, the Potency was inconclusive: 18.5 µM [activator, single point].
For `COc1ccc(-c2nc3ccc(C4=NNC(=O)CC4C)cc3[nH]2)cc1` (configuration not stated), the Potency was inconclusive: 3.47 µM [activator, single point].

— PubChem BioAssay (NCATS)
Potency is the fitted concentration of half-maximal effect; tags give direction and shape of the fitted curve.
